Assay results: PubChem BioAssay (NCATS)
Where “and” joins values, the source holds several entries; their conditions need not be identical. Identical values can stand only once. The shares of active, inactive and inconclusive entries below differ from those in the screen. Potencies beside an inconclusive call are fits to weak or partial responses and may not hold up. Calls of active or inactive are those of the source. The call rests on the fitted dose curve; in most records, active means well fitted inhibition curve with a large enough effect; inconclusive means small, poorly fitted or top-dose-only effect; inactive means flat fitted curve, though single readings scatter.

tested on: MKL-1; test: qHTS assay to identify novel small-molecules to repurpose for Merkel cell carcinoma treatment (AID 1296009); settings: MCC and control cell lines, CellTiter-Glo viability, 72 h; activity change, negative = cytotoxicity: at 46 µM (top of the series); further: nearly all actives have a fitted effect of over 60% in size
How it was run: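 qHTS format: cells treated with library compounds in DMSO across 8 (NPC) or 11 (MIPE) concentrations. Readout after 72 hr at 37 degree celsius was CellTiter-Glo luminescence.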
On the % scale 0 is the no-effect control and ±100 the full control effect; potency means the concentration at half of the fitted maximal effect; tags describe the fitted curve by direction and shape.

Structure (SMILES) | Potency | activity change, negative = cytotoxicity
CC1(C)S[C@H]2[C@H](NC(=O)[C@@H](N)c3ccc(O)cc3)C(=O)N2[C@@H]1C(=O)O | inconclusive: 18.7 µM [inhibitor, partial curve] | –
CCOC(=O)C1=C[C@]2(CC)CCCN3CCc4c(n1c1ccccc41)[C@@H]32 | inconclusive: 37.2 µM [inhibitor, single point] | –
CCCc1cc(=O)[nH]c(=S)[nH]1 | inconclusive: 29.6 µM [inhibitor, single point] | –
Cc1ccc(C(=O)c2cc(O)c(O)c([N+](=O)[O-])c2)cc1 | inconclusive: 26.6 µM [inhibitor, single point] | –
C[C@@H]1CCO[C@H]2Cn3cc(C(=O)NCc4ccc(F)cc4F)c(=O)c(O)c3C(=O)N12 | inconclusive: 26.4 µM [inhibitor, single point] | –
CC1(C)SCCN(S(=O)(=O)c2ccc(OCC#CCO)cc2)[C@@H]1C(=O)NO | inconclusive: 33.2 µM [inhibitor, partial curve, poor fit] | –
CC[C@H](NC(=O)[C@H](C)NC)C(=O)N1C[C@@H](O)C[C@H]1Cc1c(-c2[nH]c3cc(F)ccc3c2C[C@H]2C[C@H](O)CN2C(=O)[C@H](CC)NC(=O)[C@H](C)NC)[nH]c2cc(F)ccc12 | inconclusive: 7.43 µM [inhibitor, full curve] | –
Nc1ncnc2c1nc(Cl)n2[C@@H]1O[C@H](CO)[C@@H](O)[C@@H]1O | inconclusive: 20.9 µM [inhibitor, single point] | –
CCOC(=O)C1=C(N)Oc2ccc(Br)cc2C1C(C#N)C(=O)OCC (stereo unspecified) | – | inactive: -1.45%
CCCCC(C)(C)[C@H](O)C=C[C@H]1[C@H](O)CC(=O)[C@H]1CC=CCCCC(=O)O | inconclusive: 18.7 µM [inhibitor, partial curve] | –
CC(=O)O[C@]1(C(C)=O)CC[C@@H]2[C@@H]3C[C@H](C)C4=CC(=O)CC[C@]4(C)[C@H]3CC[C@@]21C | inconclusive: 37.2 µM [inhibitor, single point] | –
CN(CCOc1ccc(NS(C)(=O)=O)cc1)CCc1ccc(NS(C)(=O)=O)cc1 | inactive | –
CN1CCN(CCCN2c3ccccc3Sc3ccc(Cl)cc32)CC1 | active: 16.6 µM and inconclusive: 21.1 µM [inhibitor, single point] | –
CCC(=O)NC[C@H](Cc1ccc(OCCc2nc(-c3ccccc3)oc2C)cc1)NC(C)=CC(=O)c1ccc(C(F)(F)F)cc1 | active: 7.43 µM | –
CN(C)C1CCN(C(=O)c2ccc(NC(=O)Nc3nc(N4CCOCC4)nc(N4CCOCC4)n3)cc2)CC1 | active: 0.132 µM | –
CN(C)N=Nc1nc[nH]c1C(N)=O | – | inactive: 4.52%
CC(C)C[C@H](CC(=O)O)C(=O)N[C@@H](Cc1c[nH]c2ccccc12)C(=O)N[C@@H](C)c1ccccc1 | active: 4.69 µM | –
COc1ccc(Cc2ccc(NC(N)=O)cc2)cc1-c1cccc(Cl)c1 | – | inactive: 1.87%

Structure (SMILES) | Potency | activity change, negative = cytotoxicity
COc1ccc(-c2nc3ccc(C4=NNC(=O)CC4C)cc3[nH]2)cc1 (stereo unspecified) | inconclusive: 16.8 µM [inhibitor, partial curve] | –
COc1ccc2cc(-c3nc(-c4ccc(S(C)=O)cc4)[nH]c3-c3ccncc3)ccc2c1 (stereo unspecified) | – | inactive: -4.53%
COc1ccccc1OCCNCC(O)COc1cccc2[nH]c3ccccc3c12 (stereo unspecified) | inconclusive: 23.7 µM [inhibitor, single point] | –
NS(=O)(=O)c1ccc(NC2=CC(=O)c3ccccc3C2=O)cc1 | inconclusive: 4.69 µM [inhibitor, full curve] | –
CCC[C@@H](NC(=O)[C@@H]1[C@H]2CCC[C@@H]2CN1C(=O)[C@@H](NC(=O)[C@@H](NC(=O)c1cnccn1)C1CCCCC1)C(C)(C)C)C(=O)C(=O)NC1CC1 | – | inactive: 1.09%
COC1=C(OC)C(=O)C(CCCCCCCCCCO)=C(C)C1=O | inconclusive: 33.2 µM [inhibitor, single point] | –
Clc1ccc(C(Cn2ccnc2)OCc2c(Cl)cccc2Cl)c(Cl)c1 (stereo unspecified) | inconclusive: 29.9 µM [inhibitor, single point] | –
CC(C)(Cc1ccc2ccccc2c1)NC[C@@H](O)COc1cccc(Cl)c1C#N | – | inactive: -12.7%
CO[C@H]1C[C@@H]2CC[C@@H](C)[C@@](O)(O2)C(=O)C(=O)N2CCCC[C@@H]2C(=O)O[C@H]([C@@H](C)C[C@@H]2CC[C@H](O)[C@H](OC)C2)CC(=O)[C@H](C)C=C(C)[C@@H](O)[C@@H](OC)C(=O)[C@H](C)C[C@H](C)C=CC=CC=C1C | inconclusive: 23.5 µM [inhibitor, single point] | –
COc1cc2c(cc1Cc1cccc(Cl)c1F)c(=O)c(C(=O)O)cn2[C@H](CO)C(C)C | inconclusive: 23.5 µM [inhibitor, single point] | –
C[C@@]1(C(=O)Nc2ccc(F)nc2)CCCN1c1nc(Nc2cc(C3CC3)[nH]n2)c2cccn2n1 | inconclusive: 2.64 µM [inhibitor, full curve] | –
Cc1ccc(-n2[nH]c(C)c(N=Nc3cccc(-c4cccc(C(=O)O)c4)c3O)c2=O)cc1C | inconclusive: 13.3 µM [inhibitor, partial curve] | –
Cc1ccc2c(c1)C(=O)[C@]1(O)CCN(c3ccccc3)C1=N2 | – | inconclusive: -32.6% [inhibitor]
CCC[C@H](N[C@@H](C)C(=O)N1[C@@H]2CCCC[C@H]2C[C@H]1C(=O)O)C(=O)OCC | – | inactive: -0.386%
O=c1ccc2ccc(O)c(O)c2o1 | inconclusive: 18.7 µM [inhibitor, partial curve, poor fit] | –
Cc1ccc(C2=Nc3ccc(Cl)cc3OC2)cc1 | active: 14.8 µM | –
CC(=O)SCC(Cc1ccccc1)C(=O)NCC(=O)OCc1ccccc1 (stereo unspecified) | inconclusive: 0.332 µM [inhibitor, full curve] | –
Cn1cnc2c1c(=O)[nH]c(=O)n2C | inconclusive: 23.5 µM [inhibitor, single point] | –
